Source: the supplement of paper PMC11417369
This is one part of the list.

test system: PF3D7_0420300 AP2 domain 1 (GST-tagged); test: gcPBM binding intensity (ln(normalized median fluorescence intensity)); higher = stronger DNA binding
Summary of the method: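 In this array assay, P. falciparum DNA-binding domains with a GST tag, expressed in E. coli, were applied for 1 h to primer-extended double-stranded 36-bp intergenic genomic probes and negative controls on an Agilent 4 × 180k array. Bound protein was visualised with Alexa488 anti-GST antibody at 488 nm. Binding intensity is the highest Masliner-normalised natural-log median intensity across replicate spots of either probe orientation.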

Sequence | gcPBM binding intensity (ln)
AAAAATGAAAGTAAGACATGCATGGAATTTTTTTTA [TGCATGCA_site347] | 9.2
TTTTTTTTTTATGAAAGTACATATGAAAAATACGAA [XGTACX_site3451] | 8.93
ATTAAATAAAAAAACACACACATATATACCTATATA [CACACA_site5837] | 9.95
AATAAAACATAATAATGTACTCAAAGGTTTAACTTG [XGTACX_site4711] | 9.29
CAAAACATTTTATCTACACACATATATAAATAAATA [CACACA_site3220] | 9.52
AAAATAAAAGAATAAAAATATGAAACTTTTTTAAAA [GTGCAC_negctrl_site348] | 9.05
AACGTGTGGAGAATTATAAATGAGTAAAAAATATAT [XGTACX_negctrl_site562] | 9.52
GGGGGGAGGGTGAATACACACGTAATAATCATAAAC [CACACA_site8502] | 10.3
TAATAATAGTAAATATGTACATATATATATATATAG [XGTACX_site4602] | 9.26
TAAAATTTACGGTCTTGTTGCGCAACCAACATTGTC [CACACA_negctrl_site1175] | 9.2
GTTTTTTTTTTTTTGGTGCGTCATTTTCAAAAGAAG [GTGCAC_site9745] | 9.25
AAAAAAGAAAAGAAATGTACAGAGCTTATCTTTTTA [XGTACX_site5677] | 9.07
TTATTCCTATTTGGATGTACATTTTAATATAAACAT [XGTACX_site4386] | 9.25
TTCAATTTTACATGTAGTACATAAATTATACACAAA [XGTACX_site4946] | 9.12
TTTTTTAATTTTACATGTACATACAGGTTTTTTTTT [XGTACX_site4539] | 9.31
AATGATAAAAATAAATGTACAGAATGATATTTTTTT [XGTACX_site5976] | 9.27
ATTAATAAATAAATGACACACACACCCACAAAAAAA [CACACA_site8839] | 9.97
AAAAAATTGTTTCCCTGTACTCAAAAAAAAAAAAAA [XGTACX_site8070] | 8.81
TAAATTTAAAATGACACACACTAAAATTATTTAAGT [CACACA_site4816] | 9.67

Sequence | gcPBM binding intensity (ln)
ACCTTTAATATATACACACACATAAAAAAAATATAT [CACACA_site1843] | 9.86
AAATATTCATAGTATACACACATTTATTTATAACCA [CACACA_site6502] | 9.51
TAAAAGTATTCCTTTTGTACATATAATGAAAACAAT [XGTACX_site2069] | 9.01
CTGTTTTTACTAAGTTGTACAAATGATGATACCCTA [XGTACX_site630] | 9.11
ATACAATAATATAAATGTACAAATTATATCTTAATT [XGTACX_site6004] | 9.22
CTATATTTTTAAAAATGTACTTTATAATAAAATACT [XGTACX_site3593] | 8.97
GTATGTATGTATGTATGTACTTATTTATTTATTTAT [XGTACX_site1921] | 9.54
TCTAATCTGGAGAAAAGTACATAGTATCTGGTAACA [XGTACX_site2540] | 9.17
TTATTCATACAATATCGTACATATATATATATATAT [XGTACX_site1185] | 9.36
ATCTTATATATATGTGTGCACGTATATATAAGCAAT [GTGCAC_site9933] | 9.39
GTACACCTATAATATACACACAACAAATATGCACAT [CACACA_site6603] | 9.8
ATTATATATATATATACACACACATATATATATATA [CACACA_site8373] | 9.57
TTATAAATAAAAAGAGTGCAATTATAAATATATATA | 9.25
AAAAAAATACAAATATGTACACATATATATTTAAAA [XGTACX_site4729] | 9
AAATAAAATATGAACAGTACTTTTGATATAACCATT [XGTACX_site1873] | 9.49
ATTTAAAATAGAAGTTATATTTATATGGGTGAAAAA [GTGCAC_negctrl_site296] | 9.14
GGAATAACCGGACACACACACACATATATATATATA [CACACA_site5874] | 10
ATAAATTTACATTTTTTTTTTTTTTTTTTTTTTTTT [GTGCAC_negctrl_site689] | 9.16
GTATAGTACAAATAAGTGCATATAAAAGAAATACAG | 9.64

Sequence | gcPBM binding intensity (ln)
AAAAAATATACATATTGTACATTTTTTATTAACACA [XGTACX_site6415] | 9.12
TAATTTTTATTCAGTTCACACACGCTTTAATATTAT [CACACA_site9147] | 9.58
ATTACCAAAAAAAGGTGTACAAATATAATTATGAAA [XGTACX_site44] | 9.27
TTTTCCTTTCACAATGGTACACAAATATACATGCAA [XGTACX_site7244] | 9.04
ATTTTTTTTCGTAATTGTTCTTAATGTTGAATTATA [CACACA_negctrl_site1135] | 9.46
TAGTAATATGTATCCATACACACATACATTTTATTT [CACACA_site873] | 9.55
TTTATATTTAAAGAAACATGCATTTATCATATATAC [TGCATGCA_site173] | 9.1
TACACGCATAAACACACACACACACCCATATATATA [CACACA_site8114] | 10.4
CAATTTATAAAGAAAACACACATATACCTATATACA [CACACA_site6710] | 9.55
TCTATAATATTTTTCACACACCATTTCCTTAAACAC [CACACA_site6747] | 9.6
AAAAAAATAAAATACAAAATGGCTATACAAAATAAA [GTGCAC_negctrl_site535] | 9.57
TTTGTTGACGAACACACACACATACATATTTATATA [CACACA_site7141] | 9.79
ATTACATATGTCGCTTGTACGCATAATTTTTTTATA [XGTACX_site5782] | 9.44
ATTTTTTTATTTTGAAGTACATAAACTTTATATATA [XGTACX_site1746] | 9.25
ATTTAAAAAAAAAGACGTACATTTATATAGAATCCT [XGTACX_site6457] | 9.19
TAGTTCCTCAAAAATTTCCTTTGTCATTTTATTCAC [GTGCAC_negctrl_site20] | 9.22
TACATAAATTAATAGTCACACACGTATTTTTTATAT [CACACA_site8806] | 9.45
TAAAGAAATTCTTCATGTACTTATTATTTCTCTTTT [XGTACX_site6817] | 9.1
GTTATACAAAATAATACATGCATGTCCTACATATAT [TGCATGCA_site320] | 9.44
